From paper PMC4336329 (PLoS ONE, 2015)
Out of some 310,000 compounds screened, about 14,000 (4.5%) showed an effect of 50% or more. The effect is printed as a negative number. This is one part of the list.

Biological target: human ether-à-go-go-related gene (hERG) potassium channel (human, UniProt Q12809)
Assay: primary screen, population patch clamp on CHO cells stably expressing hERG
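Note: peak tail current of the secondary pulse compared with the same well before compound.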

human ether-à-go-go-related gene (hERG) potassium channel, sequence (Q12809 whole entry, looked up): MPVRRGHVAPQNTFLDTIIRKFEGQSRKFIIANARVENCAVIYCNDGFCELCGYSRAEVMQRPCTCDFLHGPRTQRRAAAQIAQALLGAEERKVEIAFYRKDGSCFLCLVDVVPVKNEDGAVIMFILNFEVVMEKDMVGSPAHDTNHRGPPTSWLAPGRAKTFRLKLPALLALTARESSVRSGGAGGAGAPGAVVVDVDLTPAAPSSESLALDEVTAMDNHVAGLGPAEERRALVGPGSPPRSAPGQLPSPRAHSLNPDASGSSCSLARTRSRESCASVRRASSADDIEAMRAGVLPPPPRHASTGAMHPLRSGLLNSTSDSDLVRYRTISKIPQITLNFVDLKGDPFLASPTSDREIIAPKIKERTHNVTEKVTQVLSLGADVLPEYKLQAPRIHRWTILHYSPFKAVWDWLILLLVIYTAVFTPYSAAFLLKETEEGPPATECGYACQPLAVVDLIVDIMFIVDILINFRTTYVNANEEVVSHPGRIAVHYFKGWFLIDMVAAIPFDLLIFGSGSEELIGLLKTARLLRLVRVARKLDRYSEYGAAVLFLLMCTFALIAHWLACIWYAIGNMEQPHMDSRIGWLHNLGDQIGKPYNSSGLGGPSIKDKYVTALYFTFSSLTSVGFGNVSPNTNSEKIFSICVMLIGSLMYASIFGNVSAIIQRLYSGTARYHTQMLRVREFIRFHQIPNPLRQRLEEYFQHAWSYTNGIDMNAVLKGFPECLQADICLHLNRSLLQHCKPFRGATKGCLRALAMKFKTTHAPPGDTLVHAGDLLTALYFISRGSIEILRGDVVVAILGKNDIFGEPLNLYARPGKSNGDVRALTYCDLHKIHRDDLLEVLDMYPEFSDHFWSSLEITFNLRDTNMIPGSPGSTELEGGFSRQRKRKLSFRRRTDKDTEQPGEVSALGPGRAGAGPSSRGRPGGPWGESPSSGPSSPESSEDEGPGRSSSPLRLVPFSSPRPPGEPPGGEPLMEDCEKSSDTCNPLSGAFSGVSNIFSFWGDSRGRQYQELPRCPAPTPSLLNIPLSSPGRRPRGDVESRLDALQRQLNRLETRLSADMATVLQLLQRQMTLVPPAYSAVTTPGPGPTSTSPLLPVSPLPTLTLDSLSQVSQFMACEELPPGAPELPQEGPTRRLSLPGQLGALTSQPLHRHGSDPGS

Compound | hERG current change (%, negative = inhibition) at 10uM [%]
CCn1c(SCc2nc3sc(C(=O)O)c(C)c3c(=O)[nH]2)nnc1-c1ccc(Cl)cc1 | 6.23
Cn1c(SCc2ccc([N+](=O)[O-])cc2)nnc1-c1ccncc1 | -52
O=C(Cn1cnc2cc([N+](=O)[O-])ccc2c1=O)Nc1ccc(N2CCOCC2)cc1 | 0.511
CC(C)NS(=O)(=O)c1ccc(CCC(=O)Nc2cc(Cl)ccc2Oc2ccccc2)cc1 | 3.35
COc1cc(CC(NC(C)=O)C(=O)NC2CCN(C(=O)c3cc(OC)c(OC)c(OC)c3)CC2)cc(OC)c1 (centres unmarked) | -7.91
Cc1occc(=O)c1OC(=O)Nc1ccc(Cl)c(Cl)c1 | 12.7
COC(=O)C[C@H]1c2cc(C(F)(F)F)ccc2S(=O)(=O)N1C1CCCCC1 | -4.46
O=C(NS(=O)(=O)c1ccc(Cl)s1)c1ccccc1 | 20.1
CCOc1ccc(C(C)=O)cc1COC(=O)c1ccc2c(c1)NC(=O)CS2 | -7.29
O=C(CCCN1C(=O)/C(=C/c2ccccc2Cl)SC1=S)Nc1ccccn1 | 2.72
COC(=O)Nc1ccc(S(=O)(=O)N2CCCCCC2)cc1 | 9.82
Cc1cc(C)nc(N=Nc2c(O)n(Cc3ccc(Cl)cc3)c3ccccc23)n1 | 10.7
O=C1NC(c2ccccc2)(C(F)(F)F)C(=O)N1Cc1cccnc1 (centres unmarked) | -1.67
NC(=O)CC(NC(=O)Cc1ccc(Br)cc1)c1ccc(NC2CC3CCC2C3)c([N+](=O)[O-])c1 (centres unmarked) | 1.31
COc1c(Cl)cc(Cl)cc1CNc1ccc(S(N)(=O)=O)cc1 | 8.56
CCn1c(SCC(=O)N/N=C/c2c[nH]c3ccccc23)nnc1-c1ccc(C(C)(C)C)cc1 | 2.01
CCCCNC(=O)CCCCC(=O)N/N=C/c1ccccc1Cl | 1.26
CCN1C=CC(=C2C(=O)c3ccccc3C2=O)C=C1 | -12.6
Nc1nc2n(n1)C(=O)CC(c1ccc(Cl)cc1)N2 (centres unmarked) | -15
O=C(NCc1nnc(SCc2ccc(C(F)(F)F)cc2)n1-c1ccccc1)C12CC3CC(CC(C3)C1)C2 | -1.48
CCOc1cc(/C=C2\CN(CC)C/C(=C\c3ccc(O)c(OCC)c3)C2=O)ccc1O.Cl | -38.9
O=C(CCn1c(=O)oc2ccccc21)Nc1cccc(Cl)c1 | -2.8
COc1cccc2cc(C(=O)NCc3ccco3)c(=Nc3ccc(C(=O)O)cc3)oc12 | -19.6
CC(OC(=O)CCCN=C1NS(=O)(=O)c2ccccc21)C(=O)Nc1ccccc1[N+](=O)[O-] (centres unmarked) | -10.8
CC1(C)CC(=O)C2=C(C1)NC(SCC(N)=O)=C(C#N)C21CCCCC1 | 12.3
COc1cccc(N2CCN(Cc3ccsc3)CC2)c1 | -33.1
COC(=O)Nc1ccc(N=C(N)N[N+](=O)[O-])cc1 | 15.4

Compound | hERG current change (%, negative = inhibition) at 10uM [%]
CN1CCN(C(=O)C2=C[C@@H](C3CC3)C[C@@H](OCc3ccc(CO)cc3)O2)CC1 | 16.5
CCOc1ccc2ccccc2c1C(=O)N[C@@H]1C(=O)N2[C@@H]1SC(C)(C)[C@@H]2C(=O)[O-].[Na+] | 11.4
COc1cc2c(cc1OC)C1(CCCC1)CNC2c1cccc([N+](=O)[O-])c1 (centres unmarked) | -43.3
O=C(Oc1ccc2ccccc2c1Cl)N1CCCC1 | -17.4
O=C(O)CNS(=O)(=O)c1cc(Cl)c(Cl)cc1Cl | 6.77
CCOC(=O)C1CCCN(C(=O)c2sc3nc(C)nc(N4CCOCC4)c3c2C)C1 (centres unmarked) | -3.42
CCC(=O)N1CCc2cc(S(=O)(=O)CCC(=O)NCCc3ccc(S(N)(=O)=O)cc3)ccc21 | 13.5
Cc1ccc2c(CN3CCN(Cc4ccc5c(c4)OCO5)CC3)cc(=O)oc2c1C | -35.8
CCC(C)[C@H](NS(=O)(=O)c1ccc(C)cc1)C(=O)N1CCC(C(=O)N[C@H](C(=O)O)c2ccccc2)CC1 (some centres unmarked) | 12.9
COCCn1c(C)cc(/C=C2/NC(=O)N(c3ccc(Cl)cc3)C2=O)c1C | 8.34
O=C(NNc1cccc(Cl)n1)Nc1ccccc1 | 2.72
CCN(c1cccc2ccccc12)S(=O)(=O)c1ccc(Cl)nc1 | -6.6
Cc1cccc(NC(=O)CSc2ccc(-c3ccccn3)nn2)c1C | 4.13
CCCCn1c(N)c(N(CCC(C)C)C(=O)c2ccc3c(c2)OCO3)c(=O)[nH]c1=O | 9.38
CC1(c2cc([N+](=O)[O-])cc([N+](=O)[O-])c2)CC(C)(C)N(C(=O)c2ccccc2)c2ccccc21 (centres unmarked) | 18.3
COC1CCCCC1NCCc1ccccc1.O=C(O)C(=O)O (centres unmarked) | -0.725
Cc1ccc(S(=O)(=O)Nc2nc3ccccc3nc2Nc2cccc(S(=O)(=O)N3CCCC3)c2)cc1 | 7.97
Cc1ccc(CNC(=O)CCS(=O)(=O)c2ccc3c(c2)oc(=O)n3C)cc1 | 12.7
CCOc1ccc(/C=C2\CCc3ccccc3C2=O)cc1 | 22.2
CN1C(=O)C2C3c4ccccc4C(c4ccccc43)[C@@H]2C1=O (some centres unmarked) | 15.7
O=C1NC(=S)SC1=C1CCCCCC1 | 9.82
O=c1[nH]c2ccccc2n2cnnc12 | 16.9
CCCN(CCC)c1ccc(/C=C/c2ccc3cc(OCC)ccc3n2)cc1 | 11.1
COc1ccc(/C=C(\C#N)C(=O)Nc2cc(C)c(Cl)cc2OC)cc1O | 1.66
O=C1CN(C(=O)c2ccccn2)c2ccccc2N1 | -5.01
CCc1ccc(NC(=O)C2CCN(c3c(N4CCCC4)c(=O)c3=O)CC2)cc1 | 24.7
